# Test results as given in PubChem BioAssay AID624296 (National Center for Advancing Translational Sciences (NCATS), 2012).
# Out of some 350,000 compounds screened, about 9,900 (2.8%) were called active. The inconclusive results got no clear call from the source; some entries with a clear call stand among them for comparison. Calls come from the whole dose curve; as a rule, active = well fitted activation curve with a large enough effect; inconclusive = small, poorly fitted or top-dose-only effect; inactive = no such curve, though single readings can be large or run the other way. No potency is given beside an inconclusive call; the fits are too rough.
# Assay: A quantitative high throughput screen for small molecules that induce DNA re-replication in MCF 10a normal breast cells. Note: nearly all actives have a fitted effect of over 50% in size.
# Conditions: MCF 10A DNA re-replication, Hoechst nuclear intensity, 48 h; series mostly up to 46.1 µM
# Potency is the fitted concentration of half-maximal effect; tags give direction and shape of the fitted curve.
row,Structure (SMILES),Potency
1,C=CCn1c(SCC(=O)NC2CCCC2)nc2sc(C)cc2c1=O,"inconclusive [activator, single point]"
2,CN(C1CCCCC1)S(=O)(=O)c1ccc(NC(=O)c2ccc(Br)o2)cc1,"inconclusive [activator, single point]"
3,NCCCC(N)CC(=O)NC1CNC(=O)C(C2CC(O)N=C(N)N2)NC(=O)/C(=C/NC(N)=O)NC(=O)C(CO)NC(=O)C(CO)NC1=O (centres undefined),inactive
4,CCSC1(SCC)N=C(N)C2(C#N)C(c3ccc(F)cc3)C12C#N (centres undefined),"inconclusive [activator, partial curve, poor fit]"
5,CCCOc1ccc(-c2cnc(N)s2)cc1,"inconclusive [activator, partial curve, poor fit]"
6,Cc1onc(-c2ccc(Cl)cc2Cl)c1-c1csc(N/N=C/c2ccccc2Cl)n1,"inconclusive [activator, single point]"
7,COCCN1CCC(CO)C1 (centres undefined),inactive
8,Cc1cccc(C(=O)Nc2ccc(C(=O)/C=C/c3cccnc3)cc2)c1,"inconclusive [activator, partial curve, poor fit]"
9,CC(C)Nc1nc(-c2ccncc2)nc(-c2ccc(Cl)cc2)c1C#N,"inconclusive [activator, partial curve, poor fit]"
10,CN1/C(=C\C(=O)Nc2ccc(Br)cc2)C(C)(C)c2ccccc21,"inconclusive [activator, partial curve, poor fit]"
11,COc1ccc([C@H]2CC(=O)C=C(c3ccc(Cl)cc3C)C2)cc1,active: 18.4 µM
12,COc1ccc(C(=O)Nc2ccccc2N2CCOCC2)cc1[N+](=O)[O-],inactive
13,CC1CCCN(c2nc(-c3cccnc3)nc3scc(-c4ccccc4)c23)C1 (centres undefined),active: 23.1 µM
14,CC(=O)Nc1ccc(N2C(=O)c3cccc4c(O)ccc(c34)C2=O)cc1,inactive
15,CC(C)(C)c1ccc(C(=O)NC(=S)NCc2ccco2)cc1,"inconclusive [activator, partial curve]"
16,Cc1ccc(SC2=C(Sc3ccc(C)cc3)C(=O)c3ccccc3C2=O)cc1,active: 3.26 µM
17,CCN(CC)CC(=O)Nc1sc2c(c1C(=O)c1ccccc1OC)CCC2,"inconclusive [activator, single point]"
18,C=CCn1c(-c2cccc([N+](=O)[O-])c2)n[nH]c1=S,"inconclusive [activator, single point]"
19,FC(F)(F)c1ccc(/C=N/n2c(C3CCCCC3)n[nH]c2=S)cc1,active: 23.1 µM
20,O=C(Nc1ccccc1N1CCOCC1)c1cccc2c(Br)cccc12,"inconclusive [activator, partial curve, poor fit]"
21,CCOC(=O)C1CCN(c2c(NCCC(C)C)c(=O)c2=O)CC1,inactive
22,CSc1nc2ccc(S(=O)(=O)N3CCc4ccccc43)cc2s1,"inconclusive [activator, single point]"

row,Structure (SMILES),Potency
1,O=C(Nc1ccc(F)cc1)Nc1csc2ccccc12,"inconclusive [activator, full curve, poor fit]"
2,CCOC(=O)C1C(C(=O)OCC)C1(c1ccccc1)c1ccccc1 (centres undefined),"inconclusive [activator, partial curve, poor fit]"
3,CC1(C)CC(=O)C=C(c2ccc3ncccc3c2)C1,inactive
4,CC1(C)SC(=S)N(NC(=O)Nc2ccccc2)C1N(O)C(=O)Nc1cccc2ccccc12 (centres undefined),"inconclusive [activator, single point]"
5,O=C1CC(c2ccc(F)cc2)CC2=C1C=Nc1ccccc1N2 (centres undefined),"inconclusive [activator, partial curve, poor fit]"
6,CCOc1ccc(CCNC(=O)C2=C(C)C(=O)OC23CCCCC3)cc1OCC,"inconclusive [activator, partial curve, poor fit]"
7,COc1ccc(S(=O)(=O)N2CCCOC2CNC(=O)C(=O)NCc2ccco2)cc1C (centres undefined),"inconclusive [activator, single point]"
8,CC(C)Cc1cc(C(=O)N2CCCC(CO)(Cc3ccc(F)cc3F)C2)n[nH]1 (centres undefined),"inconclusive [activator, partial curve, poor fit]"
9,Cc1cc(C)n(-c2ccc(C(=O)N3CCc4ccccc43)cc2)n1,inactive
10,Cc1[nH]nc(-c2cccnc2)c1N=NN(C)C,active: 1.64 µM
11,Cc1ccc(C(C)C)cc1OCC(=O)Nc1ccccc1N1CCCC1,active: 20.6 µM
12,CN(c1ccccc1)S(=O)(=O)c1ccc(NC(=O)c2ccc(F)cc2)cc1,"inconclusive [activator, single point]"
13,C=CCN1C(=O)C(CC(=O)Nc2ccc(C)cc2)SC1=Nc1c(C)n(C)n(-c2ccccc2)c1=O (centres undefined),"inconclusive [activator, partial curve, poor fit]"
14,Cc1cc(NC(=O)CN2CCOCC2)n(-c2ccccc2)n1,inactive
15,CCc1cc2cccc(C)c2nc1SCC(=O)N1CCN(C(=O)c2ccco2)CC1,"inconclusive [activator, single point]"
16,O=C(NCc1ccccc1)C1=C[C@@H](c2ccc(C(F)(F)F)cc2)C[C@@H](OCCCCO)O1,"inconclusive [activator, single point]"
17,CN(C)c1cc(NC(=O)CNC(C)(C)CC(C)(C)C)c2ccccc2n1,"inconclusive [activator, partial curve]"
18,Cc1cc(C)n(C2CC(=O)N(c3cccc(Cl)c3)C2=O)n1 (centres undefined),inactive
19,O=C(Nc1nnc(-c2ccccc2)o1)c1cc(-c2cccs2)nc2ccccc12,active: 2.06 µM
20,Cc1ccc2nc(-c3ccncc3)cc(C(=O)Nc3ccc(F)cc3C)c2c1,"inconclusive [activator, single point]"
21,CC(C)c1ccc(NC(=O)/C(C#N)=C/c2ccncc2)cc1,"inconclusive [activator, single point]"
22,C=CCn1c(CCNC(=O)c2cccs2)nnc1SCC(=O)c1ccc(Cl)cc1,active: 25.9 µM
